The list shows a part of the results. At the low end of the ranking, values are background and their order means little.

In the experiment the target is T1, GST-Rok-C97-191 (UniProt O34857).
T1 sequence: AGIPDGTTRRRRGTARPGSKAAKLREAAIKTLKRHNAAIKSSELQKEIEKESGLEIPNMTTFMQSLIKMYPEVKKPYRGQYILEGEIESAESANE
The experiment is described as follows: protein binding microarray.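 Note: rank score from −0.5 (least bound) to 0.5 (best bound).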 The following applies: Rok is a gene silencer of Bacillus subtilis; high values mean tight binding; most listed sequences are background and not binding sites; double strand, one strand shown.
As for CAAAATCC, the binding signal was -0.082 E-score.

As for AGGACAAT, the binding signal was -0.0191 E-score.

Sequence CGCTGCCA had a binding signal of -0.279 E-score.

Take ATCGGTCG: the binding signal is -0.132 E-score.

Sequence AAATGATC yielded a binding signal of 0.0378 E-score.

CGCAGGCA showed a binding signal of -0.209 E-score.

Turning to CAGAAAGC, the binding signal is -0.0117 E-score.

Turning to GGACGTGA, the binding signal was -0.172 E-score.

Regarding ATACAGTA, the binding signal stood at 0.385 E-score.

As for TGAATACA, the binding signal was determined as 0.0229 E-score.

AGGGCTTG registered a binding signal of -0.318 E-score.

Regarding TTCCCAAA, the binding signal was -0.219 E-score.

With AATGCCAT, the binding signal was found to be 0.107 E-score.

As for CAAGCACA, the binding signal was -0.0429 E-score.

CGGTTCTA yielded a binding signal of 0.05 E-score.

Take GGAACTAA: the binding signal is 0.114 E-score.

The sequence GCACCCCC displayed a binding signal of -0.342 E-score.

GAACCGTC registered a binding signal of -0.215 E-score.

CCCGCGTA: the binding signal is -0.12 E-score.

Sequence ACCTTCTG yielded a binding signal of -0.00111 E-score.

For AAGTAAGA, the binding signal is -0.0414 E-score.

Consider CGCCGACC, for which the binding signal was -0.381 E-score.

Turning to AATTAAGG, the binding signal worked out at 0.0283 E-score.

CATGGACC: the binding signal was -0.207 E-score.

AACGCGGC yielded a binding signal of -0.244 E-score.

In the case of ATCATAGA, the binding signal was 0.155 E-score.

AGTTCATC had a binding signal of 0.0552 E-score.

On to GGAGCTAA, for which the binding signal was 0.0242 E-score.

For GTGTGAGA, the binding signal was 0.027 E-score.

GATAGCAA: the binding signal amounted to 0.137 E-score.

ACCGTCTC came in with a binding signal of -0.115 E-score.

On to GCTGACGA, for which the binding signal is -0.179 E-score.

CTACCTGA: the binding signal was found to be 0.0723 E-score.

Consider GGATCTGA, for which the binding signal is -0.158 E-score.

GGTGCCCA came in with a binding signal of -0.252 E-score.

Sequence ATGCCTCA came in with a binding signal of -0.00521 E-score.

As for AAACAACC, the binding signal was -0.111 E-score.

ATGCTGCC: the binding signal is -0.192 E-score.

The sequence GGTTCACA returned a binding signal of 0.00148 E-score.

Turning to GGGTTCCA, the binding signal was -0.26 E-score.

Take GAGCGTGA: the binding signal is -0.137 E-score.

With AGGTGTGC, the binding signal is -0.113 E-score.

For the sequence AATCAATT, the binding signal came to 0.0514 E-score.

CATCCTTC gave a binding signal of -0.179 E-score.

In turn, CAGCATGA showed a binding signal of -0.0331 E-score.

CCTTCTCC: the binding signal was -0.165 E-score.

As to GTCAAGCA, the binding signal is -0.0462 E-score.

With AACCTTTG, the binding signal is -0.142 E-score.

In turn, CATGTTGG displayed a binding signal of -0.144 E-score.

CTTCCGGC gave a binding signal of -0.307 E-score.

Turning to CACAGTGC, the binding signal amounted to 0.0225 E-score.

As to CGATGGCG, the binding signal was -0.305 E-score.

As to GCCGATTA, the binding signal is -0.0695 E-score.

GCCCTCAC had a binding signal of -0.26 E-score.

Sequence CCCGCCTA had a binding signal of -0.243 E-score.

Sequence ACTCTTTA showed a binding signal of 0.0447 E-score.

As to GCGGAAAA, the binding signal is 0.177 E-score.

Regarding CAATTCTG, the binding signal is 0.00181 E-score.

In the case of ACGCGTTC, the binding signal worked out at 0.033 E-score.

In the case of CGATATGC, the binding signal is 0.00452 E-score.

GCGCCTGA: the binding signal was -0.293 E-score.

As for CACAAAGG, the binding signal is -0.22 E-score.

Turning to TGCTCGAA, the binding signal was -0.127 E-score.

The sequence AGCCCTCA yielded a binding signal of -0.158 E-score.

GCATTGTA had a binding signal of 0.112 E-score.

In turn, CCGCCTTA displayed a binding signal of -0.0331 E-score.

Take AGCGCAAT: the binding signal was 0.0885 E-score.

For the sequence ACTCTCAG, the binding signal is -0.135 E-score.

Turning to ATCTTTCG, the binding signal came to 0.116 E-score.

In the case of GGTACGAA, the binding signal was -0.0178 E-score.

In the case of AACGCCTC, the binding signal was -0.191 E-score.

Sequence ACAAAGGT showed a binding signal of -0.115 E-score.

Turning to ACGGCGAT, the binding signal was -0.0579 E-score.

For CGTTCTTA, the binding signal came to 0.0387 E-score.

The sequence CCGTGCTC gave a binding signal of -0.205 E-score.

As for CGCGGCAC, the binding signal was -0.203 E-score.

For ACTTGTTC, the binding signal was 0.195 E-score.

For the sequence ACGGGGCG, the binding signal was -0.381 E-score.

The sequence CCAGGCTC yielded a binding signal of -0.165 E-score.

Sequence CCACTGTC gave a binding signal of -0.118 E-score.

AGGCAAAA displayed a binding signal of -0.0274 E-score.

In the case of CAGGCGAG, the binding signal was -0.13 E-score.

The sequence ACCCTGCT showed a binding signal of -0.181 E-score.

As for ACGGCAGT, the binding signal is -0.16 E-score.

GACAAGTA: the binding signal turned out to be 0.226 E-score.

ACCACCAG displayed a binding signal of -0.0609 E-score.

GCAAATCA yielded a binding signal of 0.00425 E-score.

CAATAATG: the binding signal was -0.00138 E-score.

On to ATTGTGAG, for which the binding signal turned out to be 0.116 E-score.

Take GATCGGGC: the binding signal is -0.0269 E-score.

ACTCGGAG returned a binding signal of -0.0612 E-score.

For the sequence ATTAAGCG, the binding signal amounted to 0.231 E-score.

CGAAGGAG displayed a binding signal of -0.0169 E-score.

Sequence AAGTAACG showed a binding signal of 0.0158 E-score.

In turn, CCGGGCCG showed a binding signal of -0.376 E-score.

Sequence ATATCTAA showed a binding signal of 0.351 E-score.

With TCATATAA, the binding signal was 0.126 E-score.

As to CGAATTCG, the binding signal stood at 0.0271 E-score.

Take TCTCTCAA: the binding signal was 0.0872 E-score.

In turn, AGCGAATC registered a binding signal of 0.0103 E-score.

For the sequence AGGTTCGG, the binding signal is -0.0647 E-score.

The sequence ATCCCTGG yielded a binding signal of -0.0674 E-score.

CTGCACTA came in with a binding signal of 0.00252 E-score.

GACGTCAA returned a binding signal of 0.0337 E-score.

ACGCGAAC: the binding signal was -0.0799 E-score.

Consider TGTGGTAA, for which the binding signal was 0.205 E-score.

With ACTAACTG, the binding signal is 0.16 E-score.

In the case of TGCGGCAA, the binding signal was found to be 0.0751 E-score.

ACGCCCTA: the binding signal was -0.261 E-score.

For CATCGCGA, the binding signal turned out to be 0.085 E-score.

Sequence AGAACCAC returned a binding signal of 0.141 E-score.

AAACTGAA had a binding signal of 0.0272 E-score.

In turn, GCAATCCA displayed a binding signal of -0.15 E-score.

CGCTGATA had a binding signal of -0.0608 E-score.

ATCTCGCA showed a binding signal of 0.137 E-score.

Sequence AGGTTCAA gave a binding signal of -0.0693 E-score.

Consider CTTAGCTC, for which the binding signal is -0.0409 E-score.

For the sequence CGATGCAC, the binding signal is -0.156 E-score.

Consider CATAGGGA, for which the binding signal was -0.19 E-score.

Turning to CAGTCATG, the binding signal is -0.195 E-score.

AATATCTA yielded a binding signal of 0.343 E-score.

CTATGGCA gave a binding signal of 0.0479 E-score.

With GACCTACC, the binding signal is -0.115 E-score.

Consider AGTATATA, for which the binding signal was 0.428 E-score.

Sequence AAAGAAGA had a binding signal of -0.141 E-score.

Turning to AAGCATGT, the binding signal was -0.048 E-score.

AGGGAGCC: the binding signal was -0.364 E-score.

Sequence AGAATCAC returned a binding signal of 0.101 E-score.

CAACGCGA displayed a binding signal of 0.0243 E-score.

TAGGCTCA yielded a binding signal of -0.303 E-score.

Take CTATTACA: the binding signal amounted to 0.35 E-score.

With ACTGAGTA, the binding signal stood at 0.0348 E-score.

For the sequence CTTGTGAC, the binding signal turned out to be 0.0172 E-score.

AACTAACC: the binding signal is 0.141 E-score.

ACAGCCAA gave a binding signal of -0.0329 E-score.

With GGCTTAAC, the binding signal is -0.175 E-score.

CACATAAG: the binding signal worked out at 0.133 E-score.

The sequence GTCGGACA had a binding signal of -0.0765 E-score.

The sequence AAAACTCA gave a binding signal of 0.0997 E-score.

In the case of AAAAGGCG, the binding signal was -0.0834 E-score.

Take AGGTCACA: the binding signal is -0.186 E-score.

CCTCTGAG came in with a binding signal of -0.125 E-score.

Take AGGAGGAC: the binding signal was -0.214 E-score.

AGAAGGCA showed a binding signal of -0.0906 E-score.

For the sequence GTCAAATA, the binding signal was found to be 0.103 E-score.

In turn, CTCGACAA showed a binding signal of -0.0854 E-score.

In the case of CACCAGGC, the binding signal is -0.168 E-score.

CTTGGGAA showed a binding signal of -0.111 E-score.

For TAAACCGA, the binding signal was found to be 0.0158 E-score.

Sequence CACCCGTA registered a binding signal of -0.165 E-score.

GCGGATCC registered a binding signal of -0.187 E-score.

Turning to CCCTCTAG, the binding signal is -0.126 E-score.

Sequence AGTTCAGC came in with a binding signal of 0.16 E-score.

For the sequence AGATAGGG, the binding signal was -0.0405 E-score.

Consider CGTGACGA, for which the binding signal was -0.268 E-score.

As for CTCGCCAC, the binding signal was -0.0578 E-score.

ACCAGAAA came in with a binding signal of -0.0309 E-score.

In the case of ATGAGGCG, the binding signal is -0.173 E-score.

Turning to ATTAAGAA, the binding signal was found to be 0.171 E-score.

In the case of AGGTTCTG, the binding signal is -0.0639 E-score.

On to CGATTCTA, for which the binding signal turned out to be 0.285 E-score.

For the sequence AGTCTCGA, the binding signal is -0.0388 E-score.

Sequence GATTGGCA registered a binding signal of -0.0135 E-score.

With GCGATAGC, the binding signal is -0.158 E-score.

As to GAAATGGC, the binding signal is -0.16 E-score.

CCCAATAC: the binding signal is -0.0777 E-score.

CCATTCGG: the binding signal was -0.12 E-score.

Sequence AAAGGCTG returned a binding signal of -0.113 E-score.

CATGAACC gave a binding signal of -0.273 E-score.

CCAAACAG came in with a binding signal of -0.128 E-score.

As to AGAGCTAG, the binding signal was 0.0403 E-score.

For the sequence GACGACGA, the binding signal is -0.104 E-score.

Values taken from PMC6212790.
